The record followed here is the supplement of paper PMC9446081.

Hit rate of the full screen: of about 39,000 compounds, about 220 (0.56%) showed activity. Some of the results follow.
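Further: static incubation at 37 °C against the wild-type strain, values averaged over two biological replicates.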

In the assay the test system is Escherichia coli K-12 BW25113. The assay is described as follows: relative growth (OD600 normalised to plate interquartile mean) (fraction); higher = less growth inhibition, active = 0.2 or less. The settings on record: 50 µM; LB; incubation time: overnight (16-24 h).
On to `COc1ccc(NC(=O)N(C)C[C@H]2Oc3c(NC(=O)c4cnccn4)cccc3C(=O)N([C@H](C)CO)C[C@H]2C)cc1`, for which the relative growth was inactive: 0.983.

For the molecule `C[C@H](CO)N1C[C@H](C)[C@@H](CN(C)C(=O)Nc2cccc3ccccc23)Oc2ccc(NC(=O)NC3CCCCC3)cc2CC1=O`, the relative growth was inactive: 1.01. On to `O=C(C[C@H]1CC[C@@H](NC(=O)Cc2ccccn2)[C@H](CO)O1)NCCCN1CCOCC1`, for which the relative growth was inactive: 0.98. Take `O=C(C[C@H]1CC[C@@H](NC(=O)Cc2ccccn2)[C@@H](CO)O1)NCCc1ccncc1`: the relative growth is inactive: 1.02.

`CC/N=c1\sc(C(=O)OC)cc(=O)n1CC`: the relative growth was inactive: 1.04.

Turning to `C[C@H](CO)N1C[C@H](C)[C@H](CN(C)S(=O)(=O)c2cccs2)OCCCC[C@H](C)Oc2ccc(NS(=O)(=O)c3cn(C)cn3)cc2C1=O`, the relative growth is inactive: 0.897. With `C[C@H](CO)N1C[C@H](C)[C@H](CN(C)C(=O)Nc2cccc3ccccc23)OCc2cn(nn2)CCCC1=O` the figure was inactive: 1; with `COC(=O)c1cccc(OC(N)=O)c1`, inactive: 0.994.

As for `COc1ccc(S(=O)(=O)Nc2ccc3c(c2)C(=O)N([C@H](C)CO)C[C@@H](C)[C@H](CN(C)C(=O)Nc2ccc(C(F)(F)F)cc2)OCCCC[C@@H](C)O3)cc1`, the relative growth is inactive: 0.859. Under `COCCOC(=O)N1C(=O)[C@@]2(c3ccccc31)[C@H](c1ccc(OCCO)cc1)N1[C@H](c3ccccc3)[C@H](c3ccccc3)OC(=O)[C@H]1[C@@H]2C(=O)N1CCCCCCC1` stands inactive: 1.07; under `C[C@@H]1CCCCO[C@H](CN(C)C(=O)Nc2ccc(C(F)(F)F)cc2)[C@@H](C)CN([C@@H](C)CO)C(=O)c2cc(NS(=O)(=O)c3cccs3)ccc2O1`, inactive: 0.988; under `CC(C)NC(=O)N(C)C[C@H]1Oc2ccc(NS(=O)(=O)c3ccc(F)cc3)cc2C(=O)N([C@H](C)CO)C[C@H]1C`, inactive: 1.02. With `CCS(=O)(=O)N1CC[C@]2(CC1)CN([C@H](CO)c1[nH]c3cc(ccc3c12)OC)S(=O)(=O)c1ccc(cc1)C` the figure was inactive: 1.04; with `COc1ccc(CN(C)C[C@@H]2OCCCC[C@H](C)Oc3ccc(NC(=O)C4CCCCC4)cc3C(=O)N([C@@H](C)CO)C[C@@H]2C)cc1`, inactive: 0.996; with `C[C@H](CO)N1C[C@H](C)[C@H](CN(C)S(=O)(=O)c2cccc(F)c2)Oc2ncc(C#Cc3ccccc3)cc2C1=O`, inactive: 0.869. With `C[C@H](CO)N1C[C@H](C)[C@H](CN(C)C(=O)Nc2cccc3ccccc23)Oc2ccc(NS(=O)(=O)c3ccccc3)cc2C1=O` the figure was inactive: 1.02; with `COc1ccc(CN(C)C[C@@H]2Oc3ccc(NC(=O)Cn4cnnn4)cc3C(=O)N([C@H](C)CO)C[C@@H]2C)cc1`, inactive: 1.03. `COc1ccc(NC(=O)Nc2ccc3c(c2)CC(=O)N([C@H](C)CO)C[C@@H](C)[C@@H](CN(C)Cc2ccc(-c4ccccc4)cc2)O3)cc1`: the relative growth is inactive: 1.02. Under `CNCCCN1c2ccccc2CCc2ccccc21.Cl` stands inactive: 0.982; under `COc1ccc(S(=O)(=O)N(C)C[C@H]2Oc3cc(Br)ccc3S(=O)(=O)N([C@H](C)CO)C[C@H]2C)cc1`, inactive: 1. Under `C[C@@H]1CNC(=O)CCO1` stands inactive: 0.998; under `CC(C)CC#Cc1ccc2c(c1)O[C@H](CN(C)C(=O)c1ccccn1)[C@@H](C)CN([C@H](C)CO)S2(=O)=O`, inactive: 0.992; under `CC(C)C#Cc1ccc2c(c1)O[C@H](CN(C)C(=O)c1cnccn1)[C@@H](C)CN([C@@H](C)CO)S2(=O)=O`, inactive: 0.991. For `C[C@@H]1CN([C@@H](C)CO)S(=O)(=O)c2ccc(C#C[C@@H](C)O)cc2O[C@H]1CN(C)C(=O)c1ccncc1`, the relative growth was inactive: 0.996. With `CNC[C@@H]1Oc2c(NS(=O)(=O)c3cn(C)cn3)cccc2C(=O)N([C@@H](C)CO)C[C@@H]1C` the figure was inactive: 0.926. As to `NC1CCN(C(=O)Nc2nncs2)CC1`, the relative growth is inactive: 0.977. Consider `C[C@@H]1CCCCO[C@@H](CN(C)S(=O)(=O)c2ccccc2)[C@H](C)CN([C@H](C)CO)C(=O)c2cc(NC(=O)Nc3ccc(C(F)(F)F)cc3)ccc2O1`, for which the relative growth was inactive: 1.03. Under `C[C@@H]1CN([C@H](C)CO)C(=O)c2cc(NS(C)(=O)=O)ccc2O[C@H]1CN(C)C(=O)NC1CCCCC1` stands inactive: 0.999; under `C[C@@H]1CCCCO[C@@H](CN(C)C(=O)Nc2cccc3ccccc23)[C@H](C)CN([C@@H](C)CO)C(=O)c2cc(NC(=O)c3ccncc3)ccc2O1`, inactive: 1. With `COc1ccc(NC(=O)Nc2ccc3c(c2)CC(=O)N([C@H](C)CO)C[C@H](C)[C@@H](CN(C)C(=O)Nc2ccc(C(F)(F)F)cc2)O3)cc1` the figure was inactive: 1. Turning to `C[C@H](CO)N1C[C@H](C)[C@H](CN(C)Cc2ccc(C(=O)Nc3ccccc3N)cc2)Oc2c(NC(=O)Nc3ccc4c(c3)OCO4)cccc2C1=O`, the relative growth is inactive: 1.02. For the molecule `COc1ccc(S(=O)(=O)N(C)C[C@H]2OCCCC[C@@H](C)Oc3ccc(NC(=O)CCCCCC(=O)Nc4ccccc4N)cc3C(=O)N([C@H](C)CO)C[C@@H]2C)cc1`, the relative growth was inactive: 1.01. Under `C[C@@H]1O[C@H]2Oc3c(-c4ccc(O)c(O)c4)oc4cc(O)c(c(O)c4c3=O)-c3cc(ccc3O)/C=C\C(=O)OC[C@H]3O[C@@H](O[C@H]([C@H]1O)[C@H]2O)[C@H](O)[C@@H](O)[C@@H]3O` stands inactive: 0.993. Under `CN1CCN(C(=O)C[C@H]2C=C[C@H](NC(=O)c3ccc4c(c3)OCO4)[C@H](CO)O2)CC1` stands inactive: 1; under `C[C@@H]1CN([C@H](C)CO)S(=O)(=O)c2ccc(-c3ccncc3)cc2O[C@H]1CN(C)Cc1ccc(Oc2ccccc2)cc1`, inactive: 1.03. Regarding `CCCCCCCCC(=O)O`, the relative growth was inactive: 0.881. Under `O=C(CCCCn1c(=O)[nH]c2ccccc2c1=O)N1CCN(c2ncccn2)CC1` stands inactive: 1.01.

Turning to `CCn1cc(-c2ccc3ccccc3n2)c(=S)c2ccccc21`, the relative growth is inactive: 0.999. Regarding `CN1CCN(C(=O)C[C@H]2C=C[C@H](NC(=O)Cc3ccccn3)[C@@H](CO)O2)CC1`, the relative growth is inactive: 1.03. With `CCS(=O)(=O)Nc1ccc2c(c1)C(=O)N(C)C[C@H](OC)[C@H](C)CN(Cc1ccccn1)[C@H](C)CO2` the figure was inactive: 0.999; with `CCOC(=O)c1sc(=NN)[nH]c1C`, inactive: 1.02. With `C[C@@H]1OC2=C(Cl)C(=O)N3CCC[C@H]3C[C@@]21O` the figure was inactive: 1.04. For `COc1ccc(NC(=O)N(C)C[C@H]2Oc3ccc(NC(=O)Cn4cnnn4)cc3C(=O)N([C@H](C)CO)C[C@@H]2C)cc1`, the relative growth was inactive: 0.982. With `CC(OC1OCCN(C(C)c2nc(=O)[nH][nH]2)C1c1ccc(F)cc1)c1cc(C(F)(F)F)cc(C(F)(F)F)c1` (stereo not drawn) the figure was inactive: 1.07; with `COc1ccc(S(=O)(=O)Nc2ccc3c(c2)C(=O)N([C@@H](C)CO)C[C@H](C)[C@@H](CN(C)Cc2ccccc2)OCCCC[C@H](C)O3)cc1`, inactive: 1.01; with `CNC[C@H]1Oc2ccc(NS(=O)(=O)c3cn(C)cn3)cc2CC(=O)N([C@@H](C)CO)C[C@@H]1C`, inactive: 1.01. Under `CCCNC(=O)C[C@@H]1CC[C@H]2[C@H](COc3ccc(NS(=O)(=O)c4ccccc4C)cc3C(=O)N2C)O1` stands inactive: 0.994; under `C[C@@H]1CN([C@@H](C)CO)C(=O)c2cc(NC(=O)Nc3ccc(F)cc3)ccc2O[C@@H](C)CCCCO[C@H]1CN(C)C(=O)Cc1ccccc1`, inactive: 0.999; under `Cc1ccc(S(=O)(=O)Nc2ccc3c(c2)CC(=O)N([C@@H](C)CO)C[C@H](C)[C@@H](CN(C)S(=O)(=O)c2ccccc2)O3)cc1`, inactive: 0.975.

Consider `C[C@@H]1CN([C@@H](C)CO)C(=O)c2cccc(NC(=O)C3CCOCC3)c2O[C@H]1CN(C)S(=O)(=O)c1ccccc1`, for which the relative growth was inactive: 0.975. As for `C/C=C/c1ccc2c(c1)O[C@@H](CN(C)Cc1ccc(C(=O)O)cc1)[C@H](C)CN([C@H](C)CO)S2(=O)=O`, the relative growth is inactive: 1.01. For `C[C@H](CO)N1C[C@H](C)[C@H](CN(C)C(=O)c2ccc3c(c2)OCO3)Oc2ncc(C#CCN(C)C)cc2C1=O`, the relative growth was inactive: 1.01. With `NCCSC12CC3CC(CC(C3)C1)C2` the figure was inactive: 0.9; with `FC(F)(F)c1cc(NC(=S)Nc2ccc(Br)cc2-c2nn[nH]n2)cc(C(F)(F)F)c1`, inactive: 0.915; with `Cn1nc(-c2ccccn2)nc2c(=O)n(C)c(=O)nc1-2`, inactive: 0.933. Under `O=C(C[C@H]1C[C@H]2c3cc(NC(=O)c4ccc5c(c4)OCO5)ccc3O[C@H]2[C@H](CO)O1)NCCN1CCCCC1` stands inactive: 0.997; under `COCCc1nnc(CCOC)n1N`, inactive: 0.987; under `COc1ccc2c3c([nH]c2c1)[C@@H](CO)N(C[C@]13CCN(CC1)Cc1cc(on1)-c1ccccc1)C(=O)Nc1ccc(cc1)F`, inactive: 1.03. With `C[C@@H]1CN([C@@H](C)CO)C(=O)c2c(c3ccccc3n2C)-c2ccccc2CO[C@@H]1CN(C)Cc1ccccc1C(F)(F)F` the figure was inactive: 1.03; with `C[C@H]1CN([C@@H](C)CO)C(=O)c2cc(NS(C)(=O)=O)ccc2O[C@@H]1CN(C)S(=O)(=O)c1ccc(F)cc1`, inactive: 0.989. Consider `C[C@@H]1CN([C@@H](C)CO)C(=O)c2cccc(NC(=O)c3ccncc3)c2O[C@@H]1CN(C)Cc1ccc2c(c1)OCO2`, for which the relative growth is inactive: 1.02.

For the molecule `Cc1noc(C)c1NC(=O)N(C)C[C@@H]1Oc2c(NC(=O)c3cnccn3)cccc2C(=O)N([C@H](C)CO)C[C@@H]1C`, the relative growth was inactive: 0.991. Under `CCCN(C)C[C@H]1OCCCC[C@@H](C)Oc2ccc(NS(=O)(=O)c3ccc(Cl)cc3)cc2C(=O)N([C@@H](C)CO)C[C@H]1C` stands inactive: 0.95.
